In paper PMC4336329 (PLoS ONE, 2015):
About 14,000 (4.5%) of roughly 310,000 compounds showed an effect of 50% or more. The effect is printed as a negative number. Some of the results follow.

target: human ether-à-go-go-related gene (hERG) potassium channel (human, UniProt Q12809); experiment: primary screen, population patch clamp on CHO cells stably expressing hERG
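Further: peak tail current of the secondary pulse compared with the same well before compound.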

Chain of human ether-à-go-go-related gene (hERG) potassium channel (Q12809 whole entry, looked up): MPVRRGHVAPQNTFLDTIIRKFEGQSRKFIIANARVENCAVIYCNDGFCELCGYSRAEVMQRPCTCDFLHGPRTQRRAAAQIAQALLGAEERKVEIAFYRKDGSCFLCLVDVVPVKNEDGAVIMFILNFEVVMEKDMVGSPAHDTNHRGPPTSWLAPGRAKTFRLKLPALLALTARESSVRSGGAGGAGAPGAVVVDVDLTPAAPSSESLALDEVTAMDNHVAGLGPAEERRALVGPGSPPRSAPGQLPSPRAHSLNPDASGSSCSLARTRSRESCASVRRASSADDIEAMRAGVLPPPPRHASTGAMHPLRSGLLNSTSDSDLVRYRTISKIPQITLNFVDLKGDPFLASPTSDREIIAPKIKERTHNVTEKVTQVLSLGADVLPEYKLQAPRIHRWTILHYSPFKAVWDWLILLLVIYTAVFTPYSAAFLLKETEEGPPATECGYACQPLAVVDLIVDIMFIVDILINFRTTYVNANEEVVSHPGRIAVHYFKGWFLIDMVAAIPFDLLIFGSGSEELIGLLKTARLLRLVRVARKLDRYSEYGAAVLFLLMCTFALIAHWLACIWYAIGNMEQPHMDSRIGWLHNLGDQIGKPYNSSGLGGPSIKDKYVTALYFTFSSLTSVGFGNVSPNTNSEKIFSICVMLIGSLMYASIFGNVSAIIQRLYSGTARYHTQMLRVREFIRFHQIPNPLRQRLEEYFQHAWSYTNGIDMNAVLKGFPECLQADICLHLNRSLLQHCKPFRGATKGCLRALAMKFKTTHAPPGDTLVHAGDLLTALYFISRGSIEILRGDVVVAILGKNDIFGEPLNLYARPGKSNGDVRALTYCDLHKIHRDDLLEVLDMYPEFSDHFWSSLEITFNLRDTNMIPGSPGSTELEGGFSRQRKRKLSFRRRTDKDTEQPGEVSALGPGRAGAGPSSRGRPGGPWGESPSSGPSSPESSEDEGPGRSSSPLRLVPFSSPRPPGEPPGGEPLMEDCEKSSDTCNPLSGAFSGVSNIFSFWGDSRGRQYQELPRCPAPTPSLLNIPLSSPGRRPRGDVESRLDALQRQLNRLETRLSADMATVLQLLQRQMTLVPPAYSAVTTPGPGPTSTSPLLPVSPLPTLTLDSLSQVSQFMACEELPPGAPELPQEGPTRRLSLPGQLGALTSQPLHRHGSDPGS

SMILES	hERG current change (%, negative = inhibition) at 10uM [%]
COc1ccccc1CN1CC(C(=O)NCCC2=CCCCC2)CCC1=O (centres unmarked)	-3.06
C/C(=C/c1oc2ccc(O)cc2c1[N+](=O)[O-])N(C)C	-6.14
CCOC(=O)c1oc2ccccc2c1NC(=O)c1ccc(S(=O)(=O)N2CCCC2)cc1	-8.98
CC(NC(=O)c1ccc(F)cc1)c1ccc2c(c1)CCCC2 (centres unmarked)	11
CCn1c(CCC(=O)N(C)CC(=O)Nc2cccc(F)c2)nc2cc(S(=O)(=O)N(C)C)ccc21	-19.3
COc1ccccc1NC(=S)NC(=O)c1ccc(-c2ccc(Cl)cc2)o1	5.2
O=C(CCn1cccn1)N1CCCC(N2CCN(c3cccc(C(F)(F)F)c3)CC2)C1 (centres unmarked)	-53.6
O=C(NCc1ccccn1)Nc1cc(Cl)ccc1Cl	-16.9
Cn1c(CCNC(=O)C(C)(C)C)nc2ccccc21	16.4
O=C(COC(=O)Cc1ccccc1)NC12CC3CC(CC(C3)C1)C2	4.91
Cn1nc([N+](=O)[O-])nc1Sc1nnnn1-c1ccc(C(=O)O)cc1	20.4
Cn1c(=O)cc(SCC(=O)NCCCN2CCN(c3ccccc3F)CC2)c2ccccc21	-55.5
COc1ccccc1CNC(=O)c1nnc(Cc2ccc(Cl)cc2)o1	9.83
C/C=C(\C)C(=O)Nc1cccc(C2=NOC3(C2)C[C@@H](C(N)=O)N(C(=O)c2ccccc2C(=O)c2ccccc2)C3)c1 (some centres unmarked)	3.06
CCCSc1nnc(NC(=O)c2nc(SC)ncc2Cl)s1	-9.02
O=C(CCC1CCCCC1)Nc1ncn[nH]1	-1.93
O=C(Nc1cccc(Cl)c1)Nc1csc([N+](=O)[O-])c1	17.6
CCOC(=O)C1=C(C)NC(=S)NC1c1ccco1 (centres unmarked)	14.7
O=C(NC1CCCCC1)c1ccc(CNc2ccccc2)o1	-9.19
C=CCn1c(N)c(C(=O)OCCC)c2nc3ccccc3nc21	-33
C[C@@H](NC(=O)[C@@H]1Cc2ccccc2CN1)C(=O)NC1CCCCC1	15.2
O=C(CN1C(=O)S/C(=C\c2ccc(F)cc2)C1=O)NCCCn1ccnc1	-58.9
CC(C)(C)c1ccc(/C=C/C(=O)c2ccc(NC3=NCCCS3)cc2)cc1	-10

SMILES	hERG current change (%, negative = inhibition) at 10uM [%]
O=C(CNC(=O)c1ccccc1)OCc1nnc(-c2ccccc2)o1	-7.65
CCOC(=O)c1c(C)[nH]c(C)c1S(=O)(=O)N1CCCCC1	15.9
Cc1ccccc1NC(=O)/C(C#N)=C\c1ccsc1	11.5
O=C1CCN(Cc2ccccc2)CCN1[C@H](CSc1ccccc1)Cc1ccccc1	-72.1
CCOC(=O)N1CCN(C(=O)COCc2cc(-c3ccc4c(c3)OCO4)on2)CC1	-7.91
O=C(Cn1cc(S(=O)(=O)Cc2cccc([N+](=O)[O-])c2)c2ccccc21)N1CCOCC1	-30.9
COc1cccc(CN2CC(C(=O)NCCN3CCOCC3)CCC2=O)c1 (centres unmarked)	10
Cc1cccc(CSCCNC(=S)Nc2ccccc2)c1	11.2
CC1CCc2nc(N)c(C#N)c(-c3cccnc3)c2C1 (centres unmarked)	-19.3
Nc1nnc(N2CCc3ccccc32)s1	8.34
O=C(COC(=O)/C=C/c1cccs1)NC(=O)Cc1ccccc1	-5.24
COc1ccc(N(CC(=O)NC2CCCC2)C(=O)CCC(=O)Nc2cc(C)on2)cc1	-4.44
Cc1cccc(NC(=O)c2sc3nc4c(c(-c5ccco5)c3c2N)CCC4)c1	-3.19
COc1ccc(NC(=O)c2cc3cc(C)ccc3n2C)c(OC)c1	5.55
Cc1ccc(-c2cc(C(=O)NCCc3ccccn3)c3ccccc3n2)c(C)c1	-51.1
CCCCn1c(NS(=O)(=O)c2ccccc2)c(C(=O)OCC)c2nc3ccccc3nc21	-23.9
COc1ccc(CCNC(=O)C2CCN(S(=O)(=O)c3cccc4cccnc34)CC2)cc1OC	12.1
Cc1noc(NS(=O)(=O)c2ccc(NC(=O)CSc3n[nH]c(-c4ccccc4)n3)cc2)c1C	12.7
CCN(CCCNC(=O)CCn1c(=O)[nH]c2ccccc2c1=O)c1cccc(C)c1	0.649
Cc1ccc2[nH]c(CCN(C)C)c(CC#N)c2c1	-44.7
CCCCNC(=O)c1ccc(NC(=O)CC2SC(N3CCCC3)=NC2=O)cc1 (centres unmarked)	11.8
Cc1cc(C)nc(SCc2ccc(Cl)cc2)n1	8.23
O=C(Nc1ccccc1Cl)N1CCN(Cc2ccc3c(c2)OCO3)CC1	8.37

SMILES	hERG current change (%, negative = inhibition) at 10uM [%]
COc1ccc2sc(N(CCN(C)C)C(=O)c3cc(Cl)sc3Cl)nc2c1.Cl	-0.167
O=S(=O)(c1ccc(-c2ccccc2)cc1)N1CCOCC1	7.64
CC(=O)Nc1cc(C(=O)N2CCc3ccccc3C2)ccc1Sc1ccc(Cl)cc1	-45
COc1ccc(C(=O)N/N=C(\C)CC(=O)N2CCN(C=O)CC2)cc1	19
C/C(CC(=O)Nc1ccc2c(c1)OCCO2)=N\NC(=O)COc1cccc(C)c1	-6.02
Nc1nonc1-n1nnc(C(=O)N/N=C/c2c(Cl)cccc2Cl)c1CSC1=NCCS1	6.81
Cc1cccc(-n2c(=O)[nH]c3c(C(N)=O)nc(CC(C)C)nc32)c1	2.66
Cc1ccc(S(=O)(=O)Nc2cc(C(=O)O)ccc2N2CCCCC2)cc1	9.4
CCCCCOc1ccc(C(=O)CCC(=O)N2CCCC2)cc1	-9.69
Cc1nn(C(=O)c2cccc([N+](=O)[O-])c2)c(C)c1Sc1ccccc1	7.61
CC(C)CNC(=S)NNC(=O)c1csc2ccccc12	12
O=S(=O)(c1ccccc1)N1CCN(c2ncnc3scc(-c4ccccc4)c23)CC1	13.2
COc1ccc(-c2cn(-c3ccccc3)nc2CO)cc1	-1.37
Cc1nc(N2CCN(c3ccccn3)CC2)c2c(C)c(C(=O)Nc3c(C)cc(Br)cc3C)sc2n1	18.4
O=C(NC(=S)NC1C2CC3CC(C2)CC1C3)C12CC3CC(CC(C3)C1)C2 (centres unmarked)	-1.16
COC(=O)c1ccc(COc2c(F)c(F)cc(F)c2F)o1	11.7
COc1ccc(C(=O)NC2CC3CCCC(C2)N3Cc2ccccc2)cc1 (centres unmarked)	-53.5
CN(C)CCNC(=O)c1ccc(COc2ccc(Cl)cc2Cl)cc1	-47.1
O=C(NCc1ccccn1)C(=O)Nc1nc(C23CC4CC(CC(C4)C2)C3)cs1	7.23
CC(=O)Oc1ccc(N2C(=O)C3C4C=CC(CO)(O4)C3C2=O)cc1 (centres unmarked)	11.3
CCOC(=O)N1CCN(CC(O)COc2ccccc2[N+](=O)[O-])CC1.Cl (centres unmarked)	-0.882
CCn1cc(Br)c(C(=O)Nc2sc3c(c2C(N)=O)CCCC3)n1	-2.64
O=C(Nc1cc([N+](=O)[O-])ccc1O)c1cccc(NC(=O)c2ccco2)c1	7.72

SMILES	hERG current change (%, negative = inhibition) at 10uM [%]
Cc1cc(N2CCCCC2)nc(-c2ccc(Br)cc2)n1	8.81
Cc1ccc(C(=O)c2coc3c2C(=O)C(=O)c2ccccc2-3)cc1	13.6
COc1cc(=O)n(C)c2ccccc12	-4.88
COCCn1c(=NC(=O)c2ccccc2[N+](=O)[O-])sc2cc(S(C)(=O)=O)ccc21	-20.3
Cc1ccc(NC(=O)CN2CCN(C(=O)c3ccco3)CC2)cc1	-3.01
CC(C)(C)N1CC(C(=O)Nc2ccc(C#N)cc2)CC1=O (centres unmarked)	11.6
Cl.O=c1[nH]c(CN2CCCCC2)nc2ccccc12	2.88
C(=N/n1c2ccccc2c2ccccc21)/c1ccco1	20.4
Cc1cc(C(C)(C)C)ccc1OCCN1CCCC1	-47.1
CN(C)c1nc2n(c(=O)n1)CCS2	24.8
CCc1noc(C)c1C(=O)N1CCN(S(=O)(=O)c2ccc(C)cc2C)CC1	-11.1
COc1ccc(Cl)cc1N=Cc1c(O)n(C)c(=O)n(C)c1=O	6.01
CCSc1nc2c(c(=O)[nH]1)C(c1cccnc1)C(C(=O)OC(C)C)=C(C)N2 (centres unmarked)	-14.1
N#Cc1c(C(F)(F)F)cc(-c2cccs2)nc1SC(C(=O)O)c1ccccc1 (centres unmarked)	14.7
O=C(N/N=C/c1cccnc1)c1cc2c(ccc3ccccc32)o1	13.7
COc1ccc(NC(=O)CN2C(=O)CSC2=O)cc1	16.8
Cc1ccc(-c2nc3ccccn3c2Nc2ccccc2)o1	3.96
COC(=O)CCCC1=CC2=CC(=O)C(C)(OC(=O)c3cccs3)C(=O)C2=CN1CCCOC(C)C (centres unmarked)	-7.16
O=C(Nc1ccc(S(=O)(=O)N2CCCC2)cc1)C1CCCN1C(=O)c1cccs1 (centres unmarked)	0.837
Cc1ccc(NC(=S)NNC(=O)c2cccc([N+](=O)[O-])c2)cc1Cl	18.6
